B1: GCGAGAU (DNA:RNA)
RNA: GGGAGACCGGAAUUCAGAUUGUCCGCGAGAUUUAAAUCCCGUCGUAGCCACCA
DNA 1: CAATCTGAATTCCGGTCTCCC
DNA 2: TGGTGGCTACGACGGGATT
B2: ACAGAGG (DNA:RNA)
RNA: B1 RNA with G25A, G27A, A28G, G29A, A30G, U31G
DNA 1: CAATCTGAATTCCGGTCTCCC
DNA 2: TGGTGGCTACGACGGGATT
B3: UAACGGG (DNA:RNA)
RNA: B1 RNA with G25U, C26A, G27A, A28C, A30G, U31G
DNA 1: CAATCTGAATTCCGGTCTCCC
DNA 2: TGGTGGCTACGACGGGATT
B4: CCACCCU (DNA:RNA)
RNA: B1 RNA with G25C, G27A, A28C, G29C, A30C
DNA 1: CAATCTGAATTCCGGTCTCCC
DNA 2: TGGTGGCTACGACGGGATT
B5: CUCGAAC (DNA:RNA)
RNA: B1 RNA with G25C, C26U, G27C, A28G, G29A, U31C
DNA 1: CAATCTGAATTCCGGTCTCCC
DNA 2: TGGTGGCTACGACGGGATT
B6: GAUUUGG (DNA:RNA)
RNA: B1 RNA with C26A, G27U, A28U, G29U, A30G, U31G
DNA 1: CAATCTGAATTCCGGTCTCCC
DNA 2: TGGTGGCTACGACGGGATT
B7: UAAUACG (DNA:RNA)
RNA: GGGAGACCGGAAUUCAGAUUGUCCUAAUACGUUAAAUCCCGUCGUAGCCACCA
DNA 1: CAATCTGAATTCCGGTCTCCC
DNA 2: TGGTGGCTACGACGGGATT
B8: GAGGCCG (DNA:RNA)
RNA: B7 RNA with U25G, A27G, U28G, A29C
DNA 1: CAATCTGAATTCCGGTCTCCC
DNA 2: TGGTGGCTACGACGGGATT
B9: ACUCCAU (DNA:RNA)
RNA: B1 RNA with G25A, G27U, A28C, G29C
DNA 1: CAATCTGAATTCCGGTCTCCC
DNA 2: TGGTGGCTACGACGGGATT
B10: AAUUUUG (DNA:RNA)
RNA: B7 RNA with U25A, A27U, A29U, C30U
DNA 1: CAATCTGAATTCCGGTCTCCC
DNA 2: TGGTGGCTACGACGGGATT
B11: GACGAGU (DNA:RNA)
RNA: B1 RNA with C26A, G27C, A28G, G29A, A30G
DNA 1: CAATCTGAATTCCGGTCTCCC
DNA 2: TGGTGGCTACGACGGGATT
B12: ACCGCUG (DNA:RNA)
RNA: B1 RNA with G25A, G27C, A28G, G29C, A30U, U31G
DNA 1: CAATCTGAATTCCGGTCTCCC
DNA 2: TGGTGGCTACGACGGGATT
B13: AGUUCCA (DNA:RNA)
RNA: B7 RNA with U25A, A26G, A27U, A29C, G31A
DNA 1: CAATCTGAATTCCGGTCTCCC
DNA 2: TGGTGGCTACGACGGGATT
B14: AGUCCGC (DNA:RNA)
RNA: GGGAGACCGGAAUUCAGAUUGUCCAGUCCGCUUAAAUCCCGUCGUAGCCACCA
DNA 1: CAATCTGAATTCCGGTCTCCC
DNA 2: TGGTGGCTACGACGGGATT
B15: GACCUGC (DNA:RNA)
RNA: B14 RNA with A25G, G26A, U27C, C29U
DNA 1: CAATCTGAATTCCGGTCTCCC
DNA 2: TGGTGGCTACGACGGGATT
B16: AUACGUU (DNA:RNA)
RNA: B14 RNA with G26U, U27A, C29G, G30U, C31U
DNA 1: CAATCTGAATTCCGGTCTCCC
DNA 2: TGGTGGCTACGACGGGATT
B17: UUCACUU (DNA:RNA)
RNA: B1 RNA with G25U, C26U, G27C, G29C, A30U
DNA 1: CAATCTGAATTCCGGTCTCCC
DNA 2: TGGTGGCTACGACGGGATT
B18: AGAUCUA (DNA:RNA)
RNA: B14 RNA with U27A, C28U, G30U, C31A
DNA 1: CAATCTGAATTCCGGTCTCCC
DNA 2: TGGTGGCTACGACGGGATT
B19: AGCGGAU (DNA:RNA)
RNA: B1 RNA with G25A, C26G, G27C, A28G
DNA 1: CAATCTGAATTCCGGTCTCCC
DNA 2: TGGTGGCTACGACGGGATT
B20: UCUCAAC (DNA:RNA)
RNA: B14 RNA with A25U, G26C, C29A, G30A
DNA 1: CAATCTGAATTCCGGTCTCCC
DNA 2: TGGTGGCTACGACGGGATT

This is an account of results in article PMC9911399, “Two distinct binding modes provide the RNA-binding protein RbFox with extraordinary sequence specificity”.

Substitutions are numbered along the chain they refer to; changes in the protein carry UniProt numbers. The list shows a part of the results.

This assay has as its target T1, RBFOX1 RRM RbFoxmut (Fox-RRM*) (Homo sapiens, UniProt Q9NWB1 109-208, R118D;E147R;N151S;E152T).
T1 sequence: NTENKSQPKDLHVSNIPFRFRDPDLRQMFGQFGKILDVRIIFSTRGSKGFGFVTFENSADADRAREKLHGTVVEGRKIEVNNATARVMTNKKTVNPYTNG
The assay can be described thus: EMSA; HiTS-Eq, 1 nM pool, 10 min; buffer printed only for the single-RNA assays: 10 mM Tris pH 7.5, 150 mM NaCl, 3.4 mM EDTA, 0.001% NP-40, 30 C. Conditions: tags: His6 N-terminal (pET28a); label: 5' 32P. The method, boiled down: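 These values rest on relative association constants, computed from read-count changes of each RNA species versus the control reaction and normalised to the cognate motif. Reads came from free RNA recovered by 8% native PAGE after purified RbFox RRM (wild type or mutant) at increasing concentrations was equilibrated for 10 min in 50 µL with 1 nM of a 5′-radiolabelled pool with 7 randomized nucleotides and DNA-annealed flanks.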
In general terms: A gel shift assay detects complexes by their altered migration in electrophoresis.
On to B1, for which the binding signal is 0.112 KA relative to UGCAUGU.

For B2, the binding signal is 0.0886 KA relative to UGCAUGU.

For B3, the binding signal was 0.0757 KA relative to UGCAUGU.

In the case of B4, the binding signal is 0.0678 KA relative to UGCAUGU.

Regarding B5, the binding signal was 0.0743 KA relative to UGCAUGU.

As for B6, the binding signal was 0.0887 KA relative to UGCAUGU.

Take B7: the binding signal was 0.0983 KA relative to UGCAUGU.

Turning to B8, the binding signal is 0.123 KA relative to UGCAUGU.

For B9, the binding signal was 0.102 KA relative to UGCAUGU.

Take B10: the binding signal is 0.0986 KA relative to UGCAUGU.

As to B11, the binding signal is 0.102 KA relative to UGCAUGU.

B12: the binding signal was 0.081 KA relative to UGCAUGU.

B13: the binding signal was 0.0726 KA relative to UGCAUGU.

For B14, the binding signal was 0.092 KA relative to UGCAUGU.

On to B15, for which the binding signal is 0.0774 KA relative to UGCAUGU.

For the molecule B16, the binding signal was 0.114 KA relative to UGCAUGU.

For B17, the binding signal is 0.0764 KA relative to UGCAUGU.

As to B18, the binding signal was 0.0823 KA relative to UGCAUGU.

Consider B19, for which the binding signal is 0.117 KA relative to UGCAUGU.

With B20, the binding signal was 0.0553 KA relative to UGCAUGU.
